Measurements published in the supplement of paper PMC8183993.
Where a name gives a salt, the structure may show the parent alone. ± gives the standard deviation of the averaged measurements. In all, about 3,100 compounds were measured (“mean cytoplasmic OPP incorporation (global translation) relative to DMSO”: median about 100, lowest 2% from about 56 on). The list shows a part of the results.

What follows are compounds tested on U2OS (assay: mean cytoplasmic OPP incorporation (global translation) relative to DMSO (% of DMSO); higher = more protein synthesis). Conditions: 10 µM; 24 h.
Experimental: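 Primary image-based screen in U2OS cells: compounds at 10 uM for 24 h, then a 1 h o-propargyl-puromycin (OPP) pulse, click labelling, and high-throughput microscopy. Mean cytoplasmic OPP intensity and nuclei count were normalised to DMSO wells within each plate (DMSO = 100) and averaged over triplicate plates.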

Row | Structure (SMILES) | mean cytoplasmic OPP incorporation
1 | CCCCCCC[n+]1ccc(-c2cc[n+](CCCCCCC)cc2)cc1 [DHBP dibromide] | 96
2 | CO[C@@H]1[C@H](OC(=O)NC(=O)CCl)CC[C@]2(CO2)[C@H]1[C@@]1(C)O[C@@H]1CC=C(C)C | 83.6
3 | C=CCN1C[C@H](C)N([C@H](c2ccc(C(=O)N(CC)CC)cc2)c2cccc(OC)c2)C[C@H]1C | 102
4 | C=CCN1C[C@H](C)N([C@H](c2ccc(C(=O)N(CC)CC)cc2)c2cccc(O)c2)C[C@H]1C | 111
5 | O=[N+]([O-])O[C@@H]1CO[C@H]2[C@@H]1OC[C@@H]2O [Isosorbide mononitrate] | 110
6 | CC1=CC(=O)c2c(O)cccc2C1=O [Plumbagin] | 80.5
7 | Clc1ccc(C2=CCCC3CCC2N3)cn1 (stereo unspecified) [UB 165 fumarate] | 97.7
8 | CC(C)N(CCC(C(N)=O)(c1ccccc1)c1ccccn1)C(C)C (stereo unspecified) [Disopyramide] | 108
9 | N=C(N)NN [Aminoguanidine hydrochloride] | 106
10 | C[C@H](N)[C@H](O)c1ccc(O)c(O)c1 [Levonordefrin] | 105
11 | CN1[C@@H]2CC[C@H]1C[C@@H](OC(=O)[C@H](CO)c1ccccc1)C2 [Hyoscyamine (Daturine)] | 101
12 | CN1[C@@H]2CC[C@H]1C[C@@H](OC(=O)[C@H](CO)c1ccccc1)C2 [Hyoscyamine (L)] | 95.4
13 | CN(C)CCN(C)CCc1ccc(Cl)c(Cl)c1 [BD 1047 dihydrobromide] | 105
14 | O=C(O)Cc1cccnc1C(=O)O [Homoquinolinic acid] | 104
15 | CN[C@@H]1C[C@@H](c2ccc(Cl)c(Cl)c2)c2ccccc21 [Indatraline hydrochloride] | 104 ± 5.4
16 | O=[N+]([O-])c1cc(O)c(O)c([N+](=O)[O-])c1 | 109
17 | C[C@H]([C@H](O)CCC(C)(C)O)[C@H]1CC[C@@]2(O)C3=CC(=O)[C@@H]4C[C@@H](O)[C@@H](O)C[C@]4(C)[C@H]3CC[C@]12C [Ecdysone] | 109
18 | C[C@H](N)Cc1cnc[nH]1 [(S)-(+)-a-Methylhistamine dihydrobromide] | 104
19 | c1ccc(CCCCN2CCC(c3ccccc3)CC2)cc1 [4-PPBP maleate] | 102
20 | C=C(C)[C@H]1CN[C@H](C(=O)O)[C@H]1CC(=O)O [Kainic acid] | 99.4
21 | COc1ccc(CN2CCNCC2)c(OC)c1OC [Trimetazidine dihydrochloride] | 105
22 | COc1ccc2c(c1)c(CCN1CCOCC1)c(C)n2C(=O)c1cccc(Cl)c1Cl | 89.9
23 | c1cc2c(cc1[C@H]1OC[C@H]3[C@@H]1CO[C@@H]3c1ccc3c(c1)OCO3)OCO2 [Sesamin (Fagarol)] | 89.1
24 | CC(C)C(C(=O)OC(C#N)c1cccc(Oc2ccccc2)c1)c1ccc(Cl)cc1 (stereo unspecified) [Fenvalerate] | 109

Row | Structure (SMILES) | mean cytoplasmic OPP incorporation
25 | O=C(N[C@H]1CN2CCC1CC2)c1ccc(Cl)cc1 | 99.7
26 | CN1Cc2ccccc2[C@@H]2c3cccc4[nH]cc(c34)C[C@H]21 | 83.9
27 | N#Cc1ccc(N2CCN(C(=O)COc3ccc4[nH]cc(CCN)c4c3)CC2)cc1 [Donitriptan hydrochloride] | 98.2
28 | C[C@]12CC[C@H]3[C@@H](CCC4=CC(=O)CC[C@@H]43)[C@@H]1CC[C@@H]2O [Nandrolone] | 98.1
29 | O=c1c2ccccc2[se]n1-c1ccccc1 [Ebselen] | 105 ± 2.2
30 | CCCN(CCC)C1Cc2cc(OC)c(OC)cc2C1 | 100
31 | O=c1ccc2cc(O[C@@H]3O[C@H](CO)[C@@H](O)[C@H](O)[C@H]3O)c(O)cc2o1 [Aesculin (Esculin)] | 103
32 | CN1CCCCC1Cn1cc(C(=O)c2cc([N+](=O)[O-])ccc2I)c2ccccc21 (stereo unspecified) | 112
33 | NCC(O)c1ccc(O)cc1 (stereo unspecified) [Octopamine hydrochloride] | 98
34 | O=C1Nc2ccccc2C2(CCN(CCc3ccc(C(F)(F)F)cc3)CC2)O1 | 105
35 | CC(N)Cc1cnc[nH]1 (stereo unspecified) | 101
36 | O=C(NCC1CCOCC1)c1cnc(Nc2ccc(Cl)cc2Cl)nc1C(F)(F)F | 102
37 | COC(=O)[C@@H](N)CCCNC(=N)N[N+](=O)[O-] | 104
38 | COC(=O)[C@@H](N)CCCNC(=N)N[N+](=O)[O-] [L-NAME hydrochloride] | 100
39 | CC(=O)O[C@H]1C[C@@H]2CC[C@@H]3[C@H](CC[C@@]4(C)[C@H]3C[C@H]([N+]3(C)CCCCC3)[C@@H]4OC(C)=O)[C@@]2(C)C[C@@H]1[N+]1(C)CCCCC1 [Pancuronium (Pavulon)] | 98
40 | CC(=O)O[C@H]1C[C@@H]2CC[C@@H]3[C@H](CC[C@@]4(C)[C@H]3C[C@H]([N+]3(C)CCCCC3)[C@@H]4OC(C)=O)[C@@]2(C)C[C@@H]1[N+]1(C)CCCCC1 [Pancuronium bromide] | 97.7
41 | O=C1C=CC[C@@H]2[C@H]3CCCN4CCC[C@@H](CN12)[C@@H]34 [Sophocarpine] | 98.2
42 | S=C=Nc1cccc(C2(N3CCCCC3)CCCCC2)c1 [Metaphit] | 102
43 | CCCC(C)C1(CC)C(=O)NC(=O)NC1=O (stereo unspecified) [Pentobarbital] | 103
44 | C[C@]12C[C@H]3S[C@H]3C[C@@H]1CC[C@@H]1[C@@H]2CC[C@]2(C)[C@@H](O)CC[C@@H]12 [Epitiostanol] | 87.1
45 | COP(=O)(OC)C(O)C(Cl)(Cl)Cl (stereo unspecified) [Trichlorfon] | 98.2
46 | CNC1CC(N)C(O)C(OC2OC(CO)C(O)C3OC4(OC(C(N)CO)C(O)C(O)C4O)OC23)C1O (stereo unspecified) [Hygromycin B] | 102
47 | Cc1ccc2cc3c(ccc4ccccc43)c3c2c1CC3 [3-Methylcholanthrene] | 114
48 | C[C@H](CCC(=O)O)C[C@H](C)C[C@H](C)C(=O)/C=C(\O)[C@H](C)C[C@H](C)C/C=C/[C@@H](C)[C@@H](O)[C@@H](C)[C@@H](O)C[C@@H]1CC[C@@](C)([C@H]2CC[C@@](C)([C@@H](C)O)O2)O1 [Ionomycin] | 83.6

Row | Structure (SMILES) | mean cytoplasmic OPP incorporation
49 | C=CCN1CC[C@]23c4c5ccc(O)c4O[C@H]2C(=O)CC[C@@]3(O)[C@H]1C5 [Naloxone hydrochloride] | 93.4 ± 4.1
50 | C[C@@H]1CC[C@@]2(OC1)O[C@H]1C[C@H]3[C@@H]4CC=C5C[C@@H](O[C@@H]6O[C@H](CO)[C@@H](O[C@@H]7O[C@@H](C)[C@H](O)[C@@H](O)[C@H]7O)[C@H](O)[C@H]6O[C@@H]6O[C@@H](C)[C@H](O)[C@@H](O)[C@H]6O)CC[C@]5(C)[C@H]4CC[C@]3(C)[C@H]1[C@@H]2C [Dioscin (Collettiside III)] | 50.2
51 | Cn1cc(C2=C(c3cn(C4CCN(Cc5ccccn5)CC4)c4ccccc34)C(=O)NC2=O)c2ccccc21 | 108
52 | C[C@]12CCC(=O)C=C1C=C[C@@H]1[C@@H]2CC[C@@]2(C)[C@H]1CC[C@@]2(O)CCC(=O)O [Canrenoic acid potassium salt] | 104
53 | CC[C@@H](C(=O)[C@@H](C)[C@@H](O)[C@H](C)[C@@H]1O[C@@H]([C@@H](CC)C(=O)O)CC[C@@H]1C)[C@H]1O[C@]2(C=C[C@@H](O)[C@]3(CC[C@@](C)([C@H]4CC[C@](O)(CC)[C@H](C)O4)O3)O2)[C@H](C)C[C@@H]1C [Salinomycin (Procoxacin)] | 127
54 | C(#CCN1CCCC1)CN1CCCC1 [Tremorine dihydrochloride] | 99.6
55 | OC(Cc1ccncc1)C(Cl)(Cl)Cl (stereo unspecified) | 104
56 | CS(=O)(=O)Nc1ccc(Cc2noc(-c3ccc4[nH]cc(CCN)c4c3)n2)cc1 | 108
57 | Cc1cccc(C)c1NC(=O)CN1CCCC1=O [Nefiracetam (Translon)] | 99.9
58 | Cc1cccc(Cc2c[nH]cn2)c1C [Detomidine HCl] | 98.8
59 | N#CC(C#N)=Cc1ccc(O)c(O)c1 [AG 18 (Tyrphostin 23)] | 99.4
60 | CCCC[N+]1(C)[C@@H]2C[C@@H](OC(=O)[C@H](CO)c3ccccc3)C[C@H]1[C@@H]1O[C@@H]12 (stereo partly specified) [Butylscopolamine bromide (Scopolamine butylbromide)] | 107
61 | C/C(=C\c1csc(C)n1)[C@@H]1C[C@@H]2O[C@@H]2CCC[C@H](C)[C@H](O)[C@@H](C)C(=O)C(C)(C)[C@@H](O)CC(=O)O1 [Epothilone A] | 90.8
62 | COc1ccc(N(C(=O)Oc2c(C)cccc2C)c2ccnc(Nc3ccc(N4CCN(C)CC4)cc3)n2)c(OC)c1 | 114
63 | CN(C)CCc1ccc(O)cc1 [Hordenine] | 102
64 | CC(=O)[C@H]1CC[C@H]2[C@@H]3CC[C@H]4C[C@](C)(O)CC[C@]4(C)[C@H]3CC[C@]12C [Ganaxolone] | 100
65 | C#C[C@]1(O)CC[C@H]2[C@@H]3CCC4=CC(=O)CCC4=C3C=C[C@@]21CC [Gestrinone] | 112
66 | O=C(O)C1=CCCN(CCOC(c2ccc(C(F)(F)F)cc2)c2ccc(C(F)(F)F)cc2)C1 [CI 966 hydrochloride] | 97.6
67 | CN1[C@@H]2C[C@@H](OC(=O)[C@H](CO)c3ccccc3)C[C@H]1[C@@H]1O[C@@H]12 [Scopolamine HBr] | 111
68 | CN1[C@@H]2C[C@@H](OC(=O)[C@H](CO)c3ccccc3)C[C@H]1[C@@H]1O[C@@H]12 [Scopolamine hydrochloride] | 98.7
69 | CN1[C@@H]2C[C@@H](OC(=O)[C@H](CO)c3ccccc3)C[C@H]1[C@@H]1O[C@@H]12 [Scopolamine hydrobromide] | 102
70 | CC(C)(O)[C@H]1O[C@H]2CC[C@@]3(C)[C@@](O)(CC[C@H]4Cc5c([nH]c6ccccc56)[C@@]43C)C2=CC1=O [Paxilline] | 96.4 ± 5.5
71 | NCC(CC(=O)O)c1ccc(Cl)cc1 (racemic) [Baclofen (R,S)] | 105
